To fix the notation:
T1: UNK ZnF1-3 (human, UniProt Q9C0B0 31-174)
T1 sequence: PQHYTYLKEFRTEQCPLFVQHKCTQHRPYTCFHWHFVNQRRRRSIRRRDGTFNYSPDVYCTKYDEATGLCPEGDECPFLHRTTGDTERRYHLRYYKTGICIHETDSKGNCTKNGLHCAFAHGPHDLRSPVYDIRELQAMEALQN

B1: 56458844_56458964_4621_CDS_ENSG00000151914_ENST00000244364|human|control|control (ssRNA)
RNA: GGGAGUUCUACAGUCCGACGAUCAUGCACUUUCAGUUCCUUCAUGUUCUUUUGCAGUUUCUCUUUUUCUUCAGGAGAGAGAUACUGACCCUGUUUCUCAAGCAACACUUGUGCAGACUGAGUGGCUAUGAUCACUGCUUGGUGCAACAGAGGAUUGAGCAUCA
B2: chr7:97326020:97326021:+_ENSMUSG00000039361_ENSMUST00000049537|mus_mus|FALSE|FALSE (ssRNA)
RNA: GGGAGUUCUACAGUCCGACGAUCGGUUGGCUGCUGCAAGUCAAGCAGGUCAUUUGGCAGCUUAGAUGUGCUGUUAGAAGAACUAGGGGUAGAAAAUAUGUCAAUGGCUGGUGCAGUCAUUAUUCCCCCUGCUGAGGUGGACACCAACAGAGGAUUGAGCAUCA
B3: chr14:89307221:89307222:+_ENSG00000165533_ENST00000346301|hu_mus|hu_hu_hu_mus_False|58_78 (ssRNA)
RNA: GGGAGUUCUACAGUCCGACGAUCUCCUGUUUGGUUAGUGCCAGGGAGCUUCAAAGACGUUCCAGGGCGUGGGACCUGAGCUAUAGCAUUUUCAUCCAGGAUCAUUUCAGCAAUUCCUUCCUGGUCCACAUCAAUUUCAUCUAUCAACAGAGGAUUGAGCAUCA
B4: chr7:127792870:127792871:+_ENSMUSG00000030884_ENSMUST00000033176|mus_hu|motif|central (ssRNA)
RNA: GGGAGUUCUACAGUCCGACGAUCUGUGAAAUGGUUCUGAACGAAGUAAUGUAACUCCUCUGAUGUCACUUUUCCAAUCCGGUAGUCAGGACAAUACAAGGGAUUAGCCAAGGCAUUCCGGUAAGCUGCUGCAUGCAAAUUUUCCAACAGAGGAUUGAGCAUCA
B5: chr16:8992458:8992459:-_ENSG00000187555_ENST00000381886|hu_hu|motif|central (ssRNA)
RNA: GGGAGUUCUACAGUCCGACGAUCUUGUCUAGGCUUGAAGAACUGUAGAAGAUCUCUUAAAGUACCUUCAUAAUUAUGUCGGAGAGGAUUACCUGGGCCAUCCCUAUAACCUUGAGACUUGAAAAACUGCAGCAACAUUGGAUCCAACAGAGGAUUGAGCAUCA
B6: 88679131_88681301_1668_3pUTR_ENSG00000107779_ENST00000372037|human|control|control (ssRNA)
RNA: GGGAGUUCUACAGUCCGACGAUCGGGCACAUCAACUUCAUUUGUGUCACUGUUGAAUUUAACAGCAAGGCCCAGGUCAGCAAUGCAGCAACUCCCAUUUUUCUUGAUGAGGAUGUUUUUGCUCUUUAGGUCUCGAUGAGCAAUCAACAGAGGAUUGAGCAUCA
B7: chrX:98862621:98862622:+_ENSMUSG00000034160_ENSMUST00000044475|mus_hu|FALSE|FALSE (ssRNA)
RNA: GGGAGUUCUACAGUCCGACGAUCCUGCAUCUCCUUUAGAGUGUUUCCCAUAUUAGAGUAGGCAUCAGCAAAGGUAGGACUGAUUCGAAUAGCCUCCUUAUAAUGCAUCAGAGCUUCCUGCAGUUUUCCCUGCUGCUGCAGUACCAACAGAGGAUUGAGCAUCA
B8: 72874030_72877353_3546_CDS_ENSG00000009954_ENST00000339594|human|control|control (ssRNA)
RNA: GGGAGUUCUACAGUCCGACGAUCUUUCUCUAAUGAAAUGACCCGGGCUUCAAAUUCUGAUGUUUCUUCCACAUAUCCAAGUCCUCCUUUUUGUAACCUUGUUGCAACUUCAAUGAGAUCACUACGAAGGAAGUUUAAAAGCUCCAACAGAGGAUUGAGCAUCA
B9: chr16:94664741:94664742:+_ENSMUSG00000040785_ENSMUST00000117648|mus_hu|mus_mus_mus_hu_False|28_28 (ssRNA)
RNA: GGGAGUUCUACAGUCCGACGAUCUGGUACUGAUCUUGGUAGCUGAUAUUCAGGAGAAAGGCUGGCCAAGGGUGUAUAUAUGCUGGUGUACUGGGGCAAACCUGGUACCAUGUUAAUGUAUGCUGGCGGUGUCUGGGUGAUAUCCAACAGAGGAUUGAGCAUCA
B10: chrX:140365796:140365797:-_ENSMUSG00000031285_ENSMUST00000033642|mus_mus|mus_mus_mus_hu_False|28_98 (ssRNA)
RNA: GGGAGUUCUACAGUCCGACGAUCCUUCUCAUUACUCAAUGCCUGCAAGGUUCUGGUUCGGUAGAAGCUACAGUGGGCGCUGUGAGUGGGGCUAGGCAACCCAUUCAUCCGUGACCCUCGCAUGUUCCUGGAUGUCUUAUCUCUCAACAGAGGAUUGAGCAUCA
B11: chr6:86328614:86328615:-_ENSG00000135316_ENST00000355238|hu_mus|FALSE|FALSE (ssRNA)
RNA: GGGAGUUCUACAGUCCGACGAUCCUGAGCUUUUCUUUCUUUCCUCUUCUGAUCUGGUGGCUUAGCAAAAACAAUUUCAAUAUUUUCUCCCUCCAAGUCUUUACCAUUCAUUUCUUCCAUAGCCUUGACAGCACCAUCUCUCUCCAACAGAGGAUUGAGCAUCA
B12: chr11:50626376:50626377:-_ENSMUSG00000044807_ENSMUST00000109135|mus_mus|motif|central (ssRNA)
RNA: GGGAGUUCUACAGUCCGACGAUCUCAGAGCUGAAGACCUCGAUUCUUAAAAGGUUAUAAAUUAAAAGUUUCUCUGAUUCGGAAAUGCAAACAGGUUCAUAGCAGGAGACUCUUGUUAACAAUGGCCUUCUACAAUACGUAAUACAACAGAGGAUUGAGCAUCA
B13: chr11:87793471:87793472:-_ENSMUSG00000020483_ENSMUST00000020775|mus_mus|mus_mus_mus_hu_False|18_48 (ssRNA)
RNA: GGGAGUUCUACAGUCCGACGAUCUGGACUUGAAAAUAAAAGAAUAAGCUGGAUCCCCCACCCCCCCACAUUGUCAACCCUACACGAGUUCUGAAUGGGCGACUCAUGAAAAUCAGCCUCAAUUGGCGCAAUGACCACCCCACCCAACAGAGGAUUGAGCAUCA
B14: chr6:114281168:114281169:-_ENSG00000196591_ENST00000368632|hu_hu|hu_hu_hu_mus_True|1_78 (ssRNA)
RNA: GGGAGUUCUACAGUCCGACGAUCUUCCAUUUUUCGGUAUAAACCAUAAUUUAGCAGCAAGUUAUGGGUCAUCCGGAUUCUAUGAGGCUUCAUGGGAUGACCCUGGCCAUAAUAAUAAUUGCCAAUAUCACCAUCAUACUAGAACAACAGAGGAUUGAGCAUCA
B15: 7809221_7809904_4510_CDS_ENSG00000170004_ENST00000380358|human|control|control (ssRNA)
RNA: GGGAGUUCUACAGUCCGACGAUCACACAGAUGGCGCAUGAACAAAGACACAUAGGCCUUAAACUCCUUCUCAGUCUUGCCCCUCAGGUCCCGCACCAGCCACUGUGUGGUGAAGGCAUCCUGUGGUGGCAUCCCCCAGCGCAUCAACAGAGGAUUGAGCAUCA
B16: chr14:56483160:56483161:+_ENSMUSG00000075592_ENSMUST00000168479|mus_mus|motif|central (ssRNA)
RNA: GGGAGUUCUACAGUCCGACGAUCAAUUCCUUUAUCUCCCACAGAUGUUGAAGACUGCCCUACUUGCAGAAGUCCCGGGCGGACCUUCUCUUUGAUACCACAACCCCCUGGCACCACCGAUAAACUGAUGAUUUUGGAGGGAAUCAACAGAGGAUUGAGCAUCA
B17: chr4:95690885:95690886:+_ENSMUSG00000028572_ENSMUST00000156910|mus_mus|mus_mus_mus_hu_False|28_68 (ssRNA)
RNA: GGGAGUUCUACAGUCCGACGAUCUUUAGAAAAUGUUAAAUACCAUGCUAAAAUAUUUUCAAAGGCUAGUCUUAUUUUACCAGAAGUCACAGGCAAGCAGACACUACAAACAUACAAGAAAAUGAAACUCAACAAUAUAACUGUCAACAGAGGAUUGAGCAUCA
B18: chr2:198351390:198351391:-_ENSG00000144381_ENST00000345042|hu_hu|hu_hu_hu_mus_False|28_108 (ssRNA)
RNA: GGGAGUUCUACAGUCCGACGAUCUCAUUCUCACUCUCCACAGAAAGGCUGCUUCUGAACUCUCAUGUGGUGACACAGCGCUACAGUCCUGAUGCUCACAGAACAGUAGUAAAAAUGCAGUGAUUUAAGUUGAAAGCAGGACACCAACAGAGGAUUGAGCAUCA
B19: chr1:60041781:60041782:+_ENSMUSG00000041040_ENSMUST00000036540|mus_hu|mus_mus_mus_hu_False|1_1 (ssRNA)
RNA: GGGAGUUCUACAGUCCGACGAUCAAGUUUACAAUAGUAAAGUAAAUGCAGUAGUGGCAAAUUUUCUUUUAUUUUCCUUCACAAAAGAAAAUCUUUAUAACCCAGUCCUAGUCUUGGACAUAGUGAAAGCUAUAAAUGCCACUGCAACAGAGGAUUGAGCAUCA
B20: chr1:150923288:150923289:+_ENSG00000143379_ENST00000271640|hu_hu|motif|central (ssRNA)
RNA: GGGAGUUCUACAGUCCGACGAUCCAAACAGAACAUCUCCAGGAAGAGGAAGUCACAGCCAGUCUCGAAAAGGUAGCGUUCGGUCUCCUGCAUUGUCCGAAGGCAGAGACCACAAGGUGUCUUAUAGAUAACAUGAAAGCCCAUCAACAGAGGAUUGAGCAUCA
B21: 187367305_187368869_812_CDS_ENSG00000065548_ENST00000337859|human|control|control (ssRNA)
RNA: GGGAGUUCUACAGUCCGACGAUCAAAUCCAGGAGGAAGUGCAUGACGAUACAUGCAAAUAUCACCCCCUCCAGGGCAUACCCAAAACCAGCCAUACUUGUUGUUUUCAAUAGCUUCCAGGAAAUGCUUGCACACUAUUUGAGUCAACAGAGGAUUGAGCAUCA
B22: chr1:187239687:187239688:+_ENSMUSG00000026615_ENSMUST00000046514|mus_hu|FALSE|FALSE (ssRNA)
RNA: GGGAGUUCUACAGUCCGACGAUCCCAGGAGUUUUGAUAGGCAAAUUGCUUCUCUCCUGGUAUCUUUGGAUCUUCAAAAACGAUUUCAAACAUUUUGGAAAAAUUCUGCCCUAAAUGAUGUGAUGUUCCUCCCUGGAUAGCUCUCAACAGAGGAUUGAGCAUCA

Some of the results follow.

For the assay, the target named is T1, UNK ZnF1-3. In words: nsRBNS (natural sequence RNA bind-n-seq); RBNS binding buffer (assumed for nsRBNS): 25 mM Tris pH 7.5, 150 mM KCl, 3 mM MgCl2, 0.01% Triton X-100, 500 ug/ml BSA, 20 U/ml SUPERase-In, 4 C; UNK is unkempt and MSI1 is Musashi-1; names of the RNAs are library labels; protein concentration not given here; high values mean tight binding.
B1 returned a binding signal of 0.602 enrichment R.
As to B2, the binding signal turned out to be 1.07 enrichment R.
B3 displayed a binding signal of 0.828 enrichment R.
Turning to B4, the binding signal amounted to 1.18 enrichment R.
Turning to B5, the binding signal is 1.9 enrichment R.
Regarding B6, the binding signal worked out at 0.876 enrichment R.
In turn, B7 came in with a binding signal of 1.12 enrichment R.
For the molecule B8, the binding signal worked out at 1.22 enrichment R.
On to B9, for which the binding signal was determined as 1.05 enrichment R.
As for B10, the figure is 0.767 enrichment R; as for B11, 0.799 enrichment R.
For B12, the binding signal is 1.68 enrichment R.
For B13, the binding signal came out at 1.62 enrichment R.
In turn, B14 came in with a binding signal of 0.714 enrichment R.
In the case of B15 it was 1.25 enrichment R; in that of B16, 0.805 enrichment R.
As to B17, the binding signal worked out at 1.63 enrichment R.
On to B18, for which the binding signal was determined as 1.4 enrichment R.
B19 returned a binding signal of 0.69 enrichment R.
B20 registered a binding signal of 1.41 enrichment R.
In turn, B21 gave a binding signal of 1 enrichment R.
As to B22, the binding signal amounted to 0.818 enrichment R.

The values are drawn from publication PMC12136788.
